The results in this text go back to publication PMC4336329 (PLoS ONE, 2015).

About 14,000 (4.5%) of roughly 310,000 compounds showed an effect of 50% or more. Effects have a minus sign here. The list shows a part of the results.
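Further: peak tail current of the secondary pulse compared with the same well before compound.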

The assay deals with human ether-à-go-go-related gene (hERG) potassium channel (human, UniProt Q12809). Briefly: primary screen, population patch clamp on CHO cells stably expressing hERG.
human ether-à-go-go-related gene (hERG) potassium channel, sequence (Q12809 whole entry, looked up): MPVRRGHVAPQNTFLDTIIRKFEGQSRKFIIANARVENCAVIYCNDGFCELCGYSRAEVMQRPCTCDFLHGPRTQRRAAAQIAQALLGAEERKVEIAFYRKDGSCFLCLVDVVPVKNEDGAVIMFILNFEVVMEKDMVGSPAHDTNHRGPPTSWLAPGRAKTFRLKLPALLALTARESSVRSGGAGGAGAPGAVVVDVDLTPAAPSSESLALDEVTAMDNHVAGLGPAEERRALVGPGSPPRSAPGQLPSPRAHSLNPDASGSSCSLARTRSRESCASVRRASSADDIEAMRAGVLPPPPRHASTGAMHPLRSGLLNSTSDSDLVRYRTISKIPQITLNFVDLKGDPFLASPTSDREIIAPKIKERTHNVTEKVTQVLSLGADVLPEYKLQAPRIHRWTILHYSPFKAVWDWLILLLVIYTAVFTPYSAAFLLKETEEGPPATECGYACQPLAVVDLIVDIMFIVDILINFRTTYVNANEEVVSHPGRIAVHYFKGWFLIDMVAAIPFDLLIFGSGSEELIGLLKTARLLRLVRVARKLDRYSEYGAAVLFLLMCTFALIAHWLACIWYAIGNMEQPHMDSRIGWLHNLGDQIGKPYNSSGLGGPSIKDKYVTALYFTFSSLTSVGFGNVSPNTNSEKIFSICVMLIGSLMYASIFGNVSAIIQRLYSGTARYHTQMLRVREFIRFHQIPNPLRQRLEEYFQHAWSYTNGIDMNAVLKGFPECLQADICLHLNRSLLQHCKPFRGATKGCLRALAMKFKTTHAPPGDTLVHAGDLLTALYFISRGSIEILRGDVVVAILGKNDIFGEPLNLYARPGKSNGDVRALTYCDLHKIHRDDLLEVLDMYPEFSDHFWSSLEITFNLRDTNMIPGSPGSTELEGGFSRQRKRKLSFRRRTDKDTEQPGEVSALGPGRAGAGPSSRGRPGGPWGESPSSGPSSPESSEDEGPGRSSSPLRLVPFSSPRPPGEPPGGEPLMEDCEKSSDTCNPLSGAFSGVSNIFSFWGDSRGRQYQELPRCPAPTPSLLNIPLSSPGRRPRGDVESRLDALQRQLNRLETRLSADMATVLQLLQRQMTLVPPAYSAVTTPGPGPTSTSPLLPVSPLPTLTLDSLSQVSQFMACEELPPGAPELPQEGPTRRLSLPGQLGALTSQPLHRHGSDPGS
In the case of `CCOC(=O)CSc1nc2ccccc2c(=O)n1CC1CCCC1`, the “hERG current change (%, negative = inhibition) at 10uM” value is recorded as -67.3%.

In the case of `COCCNC(=O)CN(CC1CCCO1)C(=O)CCC(=O)Nc1ccccn1` (centres unmarked), the “hERG current change (%, negative = inhibition) at 10uM” value is given as -12.1%.

On to `O=C(NCCc1ccccc1)c1nc(-c2cccs2)no1`, for which the “hERG current change (%, negative = inhibition) at 10uM” value is listed as -12.4%.

Consider `O=C1COc2ccc(C(=O)COC(=O)c3cnc(Cl)c(Cl)c3)cc2N1`, for which the “hERG current change (%, negative = inhibition) at 10uM” value is -0.639%.

As to `O=C1N=C(N2CCOCC2)S/C1=C\c1ccc(OS(=O)(=O)c2ccccc2)cc1`, the “hERG current change (%, negative = inhibition) at 10uM” value was -49.8%.

Regarding `CCn1ccnc1CN(C)C(=O)CCc1nnc(CCCc2ccccc2)o1`, the “hERG current change (%, negative = inhibition) at 10uM” value is given as -7.7%.

For the compound `Cc1noc(NS(=O)(=O)c2ccc(NC(=O)CSc3nnc4c(n3)[nH]c3ccccc34)cc2)c1C`, the “hERG current change (%, negative = inhibition) at 10uM” value is reported as 12%.

On to `COc1ccc(CN(C(=O)CSc2nnc(-c3ccccc3F)o2)c2ccc(F)cc2)cc1`, for which the “hERG current change (%, negative = inhibition) at 10uM” value is on record as -1.29%.

Regarding `Cc1ccc2[nH]c(C(=O)N3CCC(C(N)=O)CC3)cc2c1`, the “hERG current change (%, negative = inhibition) at 10uM” value came out at 8.07%.

For `S=C(Nc1ccc(Cl)cc1)N1CCCC1`, the “hERG current change (%, negative = inhibition) at 10uM” value was 14.5%.

With `CCN(CC)c1ccc(S(=O)(=O)N2CCOCC2)cc1NC(=O)COC(=O)/C=C/c1ccc(C)o1`, the “hERG current change (%, negative = inhibition) at 10uM” value is -26.4%.

As to `Fc1cccc(Cl)c1CSc1nnnn1-c1ccc2c(c1)OCO2`, the “hERG current change (%, negative = inhibition) at 10uM” value is -29.3%.

With `COc1ccc(N=C2CC(C)(C)CC(=O)/C2=C(/O)c2ccccc2)cc1`, the “hERG current change (%, negative = inhibition) at 10uM” value is recorded as -5.99%.

In the case of `COc1ccc(NC(=O)CSc2ncnc3sc(C)cc23)cc1`, the “hERG current change (%, negative = inhibition) at 10uM” value is reported as 4.61%.

As for `O=C(Nc1cccc(O)c1)c1cccc(S(=O)(=O)N2CCCC2)c1`, the “hERG current change (%, negative = inhibition) at 10uM” value was 0.295%.

Consider `CC(C)CCN1CC(C(=O)NCc2ccccc2)CC1=O` (centres unmarked), for which the “hERG current change (%, negative = inhibition) at 10uM” value was -7.66%.

On to `O=C(NCc1ccc(OC(F)(F)F)cc1)C1CC(c2ccccc2[N+](=O)[O-])=NO1` (centres unmarked), for which the “hERG current change (%, negative = inhibition) at 10uM” value is recorded as -68.3%.

Turning to `O=C(NN1C(=O)/C(=C/c2ccc(O)cc2)SC1=S)c1ccccc1O`, the “hERG current change (%, negative = inhibition) at 10uM” value is recorded as -9.44%.

For `Cc1nc(NC(=O)/C=C/c2ccccc2)sc1C(=O)Nc1cccc(Cl)c1`, the “hERG current change (%, negative = inhibition) at 10uM” value is given as 6.84%.

For the compound `O=S(=O)(O)c1nnc2sc3ccccc3n12`, the “hERG current change (%, negative = inhibition) at 10uM” value is listed as 19.4%.

As for `COc1ccccc1NC(=O)COC(=O)CCn1c(C)csc1=O`, the “hERG current change (%, negative = inhibition) at 10uM” value amounted to 8.69%.

In the case of `COc1c(C)cccc1C(=O)Nc1cc(Cl)ccc1N1CCOCC1`, the “hERG current change (%, negative = inhibition) at 10uM” value was determined as 7.1%.

In the case of `O=C(CSCc1ccccc1)N/N=C/c1cc2c(cc1Br)OCO2`, the “hERG current change (%, negative = inhibition) at 10uM” value was 4.47%.

With `O=C(CS(=O)(=O)Cc1ccccc1)N1CCc2ccccc21`, the “hERG current change (%, negative = inhibition) at 10uM” value was -13.5%.

Take `CCOC(=O)Nc1ccc(Oc2ccccc2)cc1`: the “hERG current change (%, negative = inhibition) at 10uM” value is listed as -43.8%.

For the compound `CC1CCN(c2oc(-c3ccc(F)cc3)nc2C#N)CC1`, the “hERG current change (%, negative = inhibition) at 10uM” value is -6.35%.

With `Cc1cc(C(=O)Nc2ncc(C)s2)c2ccccc2n1`, the “hERG current change (%, negative = inhibition) at 10uM” value is recorded as -16.4%.

On to `CCn1c(O)c(N=NC(=O)CNC(=O)c2ccco2)c2ccccc21`, for which the “hERG current change (%, negative = inhibition) at 10uM” value amounted to 7.12%.

Consider `COc1ccc(CCNC(=S)NCCc2c[nH]c3ccccc23)cc1`, for which the “hERG current change (%, negative = inhibition) at 10uM” value is -4.64%.

Turning to `O=C(CCn1c(=S)oc2ccccc21)NC1CCCCCCC1`, the “hERG current change (%, negative = inhibition) at 10uM” value was -7.06%.

In the case of `Cc1ccc(S(=O)(=O)N(CC(=O)Nc2ccccc2-c2ccccc2)c2ccc(C)cc2C)cc1`, the “hERG current change (%, negative = inhibition) at 10uM” value is 6.05%.

As for `C[C@H]([C@@H](N)C(=O)N[C@@H](C(=O)O)[C@@H]1O[C@H](n2ccc(=O)[nH]c2=O)[C@@H](O)[C@H]1O)[C@@H](O)c1ccc(O)cn1`, the “hERG current change (%, negative = inhibition) at 10uM” value is 2.64%.

With `COc1ccc(/C(N)=N/OC(=O)c2ccc([N+](=O)[O-])c(C)c2)cc1OC`, the “hERG current change (%, negative = inhibition) at 10uM” value is -16.5%.

As to `O=C(NCc1ccccc1C(F)(F)F)C1CCC(=O)N(C2CC2)C1` (centres unmarked), the “hERG current change (%, negative = inhibition) at 10uM” value is 0.171%.

As to `O=C(Nc1ccc2snnc2c1)Nc1cccc2ccccc12`, the “hERG current change (%, negative = inhibition) at 10uM” value is given as 5.36%.

For the compound `O=C(Nc1ccnc(-c2ccncc2)n1)C1CC1`, the “hERG current change (%, negative = inhibition) at 10uM” value is -27.7%.

For `CCCn1c(O)c(N=N)c2ccccc21`, the “hERG current change (%, negative = inhibition) at 10uM” value is 14.1%.

For the compound `Cc1cc(Br)ccc1NC(=O)c1ccccc1-c1ccccc1`, the “hERG current change (%, negative = inhibition) at 10uM” value is 32.3%.

Turning to `Cc1cc(C)c(S(=O)(=O)NCCc2cc3ccc(C)c(C)c3[nH]c2=O)c(C)c1`, the “hERG current change (%, negative = inhibition) at 10uM” value was found to be 14.9%.

As for `C[C@H](NC(=O)C1CC(=O)N(c2ccc3c(c2)OCO3)C1)C(=O)NC1CCCC1` (some centres unmarked), the “hERG current change (%, negative = inhibition) at 10uM” value is on record as -9.72%.

For the compound `COc1ccccc1C(=O)NCCC(=O)N(C)CC(=O)Nc1ccc(Cl)cc1`, the “hERG current change (%, negative = inhibition) at 10uM” value is on record as -31.9%.

Take `CC[C@@H](CCC=C(C)C)C(=O)N(Cc1ccccc1)c1ccccc1`: the “hERG current change (%, negative = inhibition) at 10uM” value is recorded as 3.94%.

As for `O=Cc1cn(CCC(=O)O)nc1-c1cccc(Br)c1`, the “hERG current change (%, negative = inhibition) at 10uM” value was found to be 24.2%.

On to `CCC(=O)N/N=c1/sc2ccccc2n1C`, for which the “hERG current change (%, negative = inhibition) at 10uM” value was determined as 13.9%.

Regarding `O=C1NC(=O)N(C2CCCCC2)C(=O)C1C1c2ccccc2C(=O)N1Cc1ccccc1` (centres unmarked), the “hERG current change (%, negative = inhibition) at 10uM” value is -0.0704%.

`CN(CC(=O)O/N=C(\N)c1ccc([N+](=O)[O-])cc1)S(=O)(=O)c1ccc2ccccc2c1`: the “hERG current change (%, negative = inhibition) at 10uM” value was -12.6%.

Consider `COc1ccc(N2CC(C(=O)Nc3ccc4c(c3)OCCO4)CC2=O)cc1` (centres unmarked), for which the “hERG current change (%, negative = inhibition) at 10uM” value is 4.94%.

Take `Cc1ccc(-c2noc(CCC(=O)NCCN3CCc4ccccc4C3)n2)cc1`: the “hERG current change (%, negative = inhibition) at 10uM” value was -37.4%.

In the case of `COc1ccc(S(=O)(=O)N2CCOCC2)cc1C(=O)N(C)CCOc1ccc(Cl)cc1`, the “hERG current change (%, negative = inhibition) at 10uM” value is -79.8%.

Turning to `CC1(C)CC(NCc2ccncc2)CC(C)(C)N1`, the “hERG current change (%, negative = inhibition) at 10uM” value is 37.1%.

For the compound `CCNS(=O)(=O)c1ccc(NC(=S)NCc2ccco2)cc1`, the “hERG current change (%, negative = inhibition) at 10uM” value stood at 3.26%.

On to `Cc1ccc(N/C=C/C(=O)c2ccccc2)cc1C`, for which the “hERG current change (%, negative = inhibition) at 10uM” value is listed as 16.3%.

Take `CCOC(=O)C1CCN(C(=O)Nc2ccc3nccnc3c2)CC1`: the “hERG current change (%, negative = inhibition) at 10uM” value was -16.1%.

Consider `COC(=O)NC(=C(Cl)Cl)S(=O)(=O)c1ccccc1`, for which the “hERG current change (%, negative = inhibition) at 10uM” value stood at 2.84%.

On to `Nc1nnc(SCC(=O)N2CCN(c3cccc(Cl)c3)CC2)n1-c1ccccc1`, for which the “hERG current change (%, negative = inhibition) at 10uM” value is -18.2%.

Consider `COc1ccccc1-c1cc(C(F)(F)F)nc(N2CCN(c3ccccc3)CC2)n1`, for which the “hERG current change (%, negative = inhibition) at 10uM” value is given as 3.5%.
